Test results from patent US5696084A, “Amino-lipopetide antifungal agents” (Abbott Laboratories, priority 1996, dated 1997).
Converted amounts (≈) assume the structure as drawn. At least one peptide structure holds a part that was inferred or is arguable (an end, a ring closure or a residue). Numbered stars: 1 amine (or outer) side, 2 acyl side, 3 side chain; on linkers, the order of the positions; unused ones are H or OH. Bridge positions count the residues as written; N and C are the ends. Square brackets hold non-standard residues; d marks the D form. Peptide text beside a SMILES is read from it. * marks the point of attachment. pTerphenylCO(4''-OnC5H11) = CCCCCOc1ccc(-c2ccc(-c3ccc(C(=O)*)cc3)cc2)cc1; X3 = C[N+](C)(C)CC(=O)N[C@H]1C[C@@H](C(=O)[*:2])N([*:1])C1; X27 = O=C(N[C@H]1C[C@@H](C(=O)[*:2])N([*:1])C1)c1ccccc1; X2 = CCCCCCCCOc1ccc(N2CCN(c3ccc(C(=O)*)cc3)CC2)cc1; X1 = O=C([C@@H]1C[C@H](NCc2ccccc2)CN1[*:1])[*:2]; Benzoyl(4-octyloxy) = CCCCCCCCOc1ccc(C(=O)*)cc1; X13 = CCCCCCCCN1CCN(c2ccc(C(=O)*)cc2)CC1; Pro(4S-NH2) = N[C@@H]1CN[C@H](C(=O)O)C1; hTyr = N[C@@H](CCc1ccc(O)cc1)C(=O)O; Hyp = O=C(O)[C@@H]1C[C@@H](O)CN1; X18 = CCCCCCCCOc1ccc(OC(=O)*)cc1; Orn = NCCC[C@H](N)C(=O)O; Dap = NC[C@H](N)C(=O)O

Legend:
C. albicans CAF2 = experiment: acute systemic model of C. albicans infection in mice; type: in vivo, Candida albicans; settings: mice inoculated intravenously, intraperitoneal treatment from 1 hour post inoculation, survival over 10 days, trimmed-logit analysis
[1] = test system: Candida albicans ATCC 38247; experiment: MIC by broth microdilution, Candida albicans ATCC 38247; type: cell-based; settings: Yeast Nitrogen Broth with glucose, 24 to 48 hr, growth inhibition read visually
[2] = test system: Candida albicans ATCC 10231; experiment: MIC by broth microdilution, Candida albicans ATCC 10231; type: cell-based; settings: Yeast Nitrogen Broth with glucose, 24 to 48 hr, growth inhibition read visually

Compound	ED50 Candida albicans CAF2 (C. albicans CAF2) [mg/kg]	MIC Candida albicans ATCC 38247 [1] [µg/mL]	MIC Candida albicans ATCC 10231 [2] [µg/mL]
CCCCCOc1ccc(-c2ccc(-c3ccc(CN[C@H]4CCCNC(=O)[C@@H]5C[C@H](N)CN5C(=O)[C@H]([C@@H](C)O)NC(=O)[C@H](CCc5ccc(O)cc5)NC(=O)[C@@H]5C[C@@H](O)CN5C(=O)[C@H]([C@@H](C)O)NC4=O)cc3)cc2)cc1 [Example 23]	10.0		
CCCCCCCCOc1ccc(N2CCN(c3ccc(C(=O)N[C@H]4CCCNC(=O)[C@@H]5C[C@H](N)CN5C(=O)[C@H]([C@@H](C)O)NC(=O)[C@H](CCc5ccc(O)cc5)NC(=O)[C@@H]5C[C@@H](O)CN5C(=O)[C@H]([C@@H](C)O)NC4=O)cc3)CC2)cc1 [Example 16] (X2-[Orn]T[Hyp][hTyr]T[Pro(4S-NH2)]; lactam 1-C)	4.81		
CCCCCOc1ccc(-c2ccc(-c3ccc(C(=O)N[C@H]4CCCNC(=O)[C@@H]5C[C@H](NC(=O)C[N+](C)(C)C)CN5C(=O)[C@H]([C@@H](C)O)NC(=O)[C@H](CCc5ccc(O)cc5)NC(=O)[C@@H]5C[C@@H](O)CN5C(=O)[C@H]([C@@H](C)O)NC4=O)cc3)cc2)cc1 [Example 52] ({pTerphenylCO(4''-OnC5H11)}-[Orn]T[Hyp][hTyr]T[X3]; lactam 1-C)	7.98		
CCCCCOc1ccc(-c2ccc(-c3ccc(C(=O)N[C@H]4CCCNC(=O)[C@@H]5C[C@H](N)CN5C(=O)[C@H]([C@@H](C)O)NC(=O)[C@H](CCc5ccc(O)cc5)NC(=O)[C@@H]5C[C@@H](O)CN5C(=O)[C@H]([C@@H](C)O)NC4=O)cc3)cc2)cc1 [Example 1] ({pTerphenylCO(4''-OnC5H11)}-[Orn]T[Hyp][hTyr]T[Pro(4S-NH2)]; lactam 1-C)	22.9		
CCCCCCCCOc1ccc(OC(=O)N[C@H]2CCCNC(=O)[C@@H]3C[C@H](N)CN3C(=O)[C@H]([C@@H](C)O)NC(=O)[C@H](CCc3ccc(O)cc3)NC(=O)[C@@H]3C[C@@H](O)CN3C(=O)[C@H]([C@@H](C)O)NC2=O)cc1 [Example 19] (X18-[Orn]T[Hyp][hTyr]T[Pro(4S-NH2)]; lactam 1-C)		1.56 (≈ 1.61 µM)	3.12 (≈ 3.23 µM)
CCCCCOc1ccc(-c2ccc(-c3ccc(C(=O)N[C@H]4CCCNC(=O)[C@@H]5C[C@H](N)CN5C(=O)[C@H](CN)NC(=O)[C@H](CCc5ccc(O)cc5)NC(=O)[C@@H]5C[C@@H](O)CN5C(=O)[C@H]([C@@H](C)O)NC4=O)cc3)cc2)cc1 [Example 6] ({pTerphenylCO(4''-OnC5H11)}-[Orn]T[Hyp][hTyr][Dap][Pro(4S-NH2)]; lactam 1-C)	21.79		
CCCCCCCCOc1ccc(C(=O)N[C@H]2CCCNC(=O)[C@@H]3C[C@H](N)CN3C(=O)[C@H]([C@@H](C)O)NC(=O)[C@H](CCc3ccc(O)cc3)NC(=O)[C@@H]3C[C@@H](O)CN3C(=O)[C@H]([C@@H](C)O)NC2=O)cc1 [Example 20] ({Benzoyl(4-octyloxy)}-[Orn]T[Hyp][hTyr]T[Pro(4S-NH2)]; lactam 1-C)		0.39 (≈ 0.41 µM)	0.39 (≈ 0.41 µM)
CCCCCCCCN1CCN(c2ccc(C(=O)N[C@H]3CCCNC(=O)[C@@H]4C[C@H](N)CN4C(=O)[C@H]([C@@H](C)O)NC(=O)[C@H](CCc4ccc(O)cc4)NC(=O)[C@@H]4C[C@@H](O)CN4C(=O)[C@H]([C@@H](C)O)NC3=O)cc2)CC1 [Example 15] (X13-[Orn]T[Hyp][hTyr]T[Pro(4S-NH2)]; lactam 1-C)		3.12 (≈ 3.06 µM)	1.56 (≈ 1.53 µM)
CCCCCOc1ccc(-c2ccc(-c3ccc(C(=O)N[C@H]4CCCNC(=O)[C@@H]5C[C@H](N)CN5C(=O)[C@H](CCCNC(=N)N)NC(=O)[C@H](CCc5ccc(O)cc5)NC(=O)[C@@H]5C[C@@H](O)CN5C(=O)[C@H]([C@@H](C)O)NC4=O)cc3)cc2)cc1 [Example 7] ({pTerphenylCO(4''-OnC5H11)}-[Orn]T[Hyp][hTyr]R[Pro(4S-NH2)]; lactam 1-C)	7.74		
CCCCCOc1ccc(-c2ccc(-c3ccc(C(=O)N[C@H]4CCCNC(=O)[C@@H]5C[C@H](NC(=O)c6ccccc6)CN5C(=O)[C@H]([C@@H](C)O)NC(=O)[C@H](CCc5ccc(O)cc5)NC(=O)[C@@H]5C[C@@H](O)CN5C(=O)[C@H]([C@@H](C)O)NC4=O)cc3)cc2)cc1 [Example 33] ({pTerphenylCO(4''-OnC5H11)}-[Orn]T[Hyp][hTyr]T[X27]; lactam 1-C)		25.00 (≈ 21.5 µM)	6.25 (≈ 5.36 µM)
CCCCCOc1ccc(-c2ccc(-c3ccc(C(=O)N[C@H]4CCCNC(=O)[C@@H]5C[C@H](NCc6ccccc6)CN5C(=O)[C@H]([C@@H](C)O)NC(=O)[C@H](CCc5ccc(O)cc5)NC(=O)[C@@H]5C[C@@H](O)CN5C(=O)[C@H]([C@@H](C)O)NC4=O)cc3)cc2)cc1 [Example 27] ({pTerphenylCO(4''-OnC5H11)}-[Orn]T[Hyp][hTyr]T[X1]; lactam 1-C)	6.05		
